The source of these data is ChEMBL document CHEMBL4888484, “Replenishing the malaria drug discovery pipeline: Screening and hit evaluation of the MMV Hit Generation Library 1 (HGL1) against asexual blood stage Plasmodium falciparum ,using a nano luciferase reporter read-out” (2022).

Hit rate of the full screen: of about 150,000 compounds, about 540 (0.36%) showed an effect of 50% or more. The list shows a part of the results.

The test relates to Plasmodium falciparum. In words: Primary screen in NF54 nanoGlo assay, in single point, at 2uM, 72h; a lower Z score goes with more inhibition. Type of test: functional, Erythrocyte. The conditions noted are these: timepoint 72 hour.
For `CCN1CCC[C@@H]1CNc1nccc(-c2ccccn2)n1`, the “% Inhibition” value is reported as -15% and the Z score was found to be 2.31.
Take `COc1ncccc1NC(=O)c1cccnc1O`: the “% Inhibition” value is -7% and the Z score was 1.33.
In the same order, the values of `C#CC1CN(C(=O)c2cc(Cl)c3c(c2)OCCCO3)C1` are -18% and 2.65.
For `COc1ccc(CCNC(=O)c2c(C)noc2-c2cccc(F)c2)cc1OC`, the “% Inhibition” value is -12% and the Z score is on record as 1.14.
As to `O=C(OC1(C2CC2)CC1)c1ccc2nncn2c1`, the “% Inhibition” value is -15% and the Z score stood at 2.37.
In the case of `Cc1ncc(C(=O)N2CCC3(CC2)CC(=O)N(CC(C)C)C3)cn1`, the “% Inhibition” value was -5% and the Z score came out at 0.97.
Turning to `COc1ccc(-c2cc(C[C@H]3CNCC[C@H]3CC(=O)Nc3ccccc3)no2)cc1`, the “% Inhibition” value turned out to be 37% and the Z score is listed as -1.45.
For the compound `Cc1ccc(NC(=O)c2cccc(-c3nc(-c4ccc(F)cc4)no3)c2)nc1`, the “% Inhibition” value is on record as -16% and the Z score was 1.78.
In the case of `O=C(c1ccc(Br)o1)N1CC(Oc2nc3c(F)cccc3s2)C1`, the “% Inhibition” value is -16% and the Z score was found to be 1.81.
Regarding `CCOC(=O)C(Cc1ccc(OC(=O)C2C3CCCCC32)cc1)NC(=O)C1C2CCCCC21` (stereo not drawn), the “% Inhibition” value was -1% and the Z score stood at 0.22.
As to `Cc1ccccc1OCC(=O)Nc1nc(-c2c[nH]c(C(N)=O)c2)cs1`, the “% Inhibition” value was -9% and the Z score is on record as 1.17.
On to `CC[C@H](NC1CCN(c2nc(C)nc3sccc23)CC1)c1ccc(C)cn1`, for which the “% Inhibition” value was -13% and the Z score is recorded as 2.31.
On the same counts, the results for `CCS(=O)(=O)N[C@H](c1ccccn1)C(C)C` are -8% and 1.
Take `OCC1(Cn2cc(-c3ccc4nsnc4c3)nn2)CC1`: the “% Inhibition” value is -12% and the Z score amounted to 2.28.
In the case of `O=C(NC[C@H]1CCCN(Cc2sc3ccccc3c2Cl)C1)c1cccs1`, the “% Inhibition” value is reported as -20% and the Z score was 1.75.
In the same order, the values of `Cc1ccc(O[C@H]2CCCN(S(=O)(=O)C3CC3)C2)nn1` are -7% and 0.8.
With `Cc1ccc(S(=O)(=O)Nc2ccc(-c3noc(-c4ccccc4)n3)cc2)cc1`, the “% Inhibition” value was found to be 0% and the Z score came to 0.05.
`N#Cc1ccc(C(=O)N2C[C@@H]3CC[C@H]2CN(c2cnccn2)C3)cc1`: the “% Inhibition” value is -17% and the Z score was found to be 2.45.
In the case of `CCOCC(=O)N1CCC(CCc2noc(N(C)C)n2)CC1`, the “% Inhibition” value is -4% and the Z score is 0.68.
On the same counts, the results for `C[C@H]1Cc2cc(-c3ccc(CNC(=O)C4CCC(O)CC4)cc3)ccc2O1` (stereo partly drawn) are -9% and 1.86.
As for `Cc1ccc(-c2c3c(=O)n(C)c(=O)n(C)c3c3n2-c2ccccc2N[C@@H]3c2ccc(C#N)cc2)cc1`, the “% Inhibition” value is given as 6% and the Z score was -1.09.
On the same counts, the results for `CN1C[C@H](O)[C@@H](N2CCC(c3cc(Cc4ccccc4)n[nH]3)CC2)C1` are -27% and 2.59.
Consider `CCOc1ccccc1NC(=O)CN1CCN(Cc2ccc(F)cc2)C(=O)C1=O`, for which the “% Inhibition” value is on record as -7% and the Z score came out at 0.69.
On to `O=C(NC[C@@]1(CCO)CCOC1)c1cccnc1C1CC1`, for which the “% Inhibition” value is -5% and the Z score amounted to 0.49.
In the same order, the values of `CN(C)c1nsnc1Nc1cccc(Cl)c1` are -33% and 3.87.
Take `O=C(NCCn1c(=O)n(Cc2ccc(F)cc2)c2cccnc21)[C@@H]1CCCO1`: the “% Inhibition” value is -1% and the Z score was 0.11.
As for `O=C(Nc1ccc(N2CCOCC2)nc1)NC1CCCC1`, the “% Inhibition” value is recorded as -2% and the Z score turned out to be 0.32.
For the compound `CCn1cc(NC(=O)[C@H]2CCN(C)C(=O)C2)cn1`, the “% Inhibition” value is on record as -1% and the Z score worked out at 0.16.
On to `COC1C2CC3CN(C(=O)c4ccc(C(N)=O)o4)C1C3C2` (stereo not drawn), for which the “% Inhibition” value is recorded as 3% and the Z score is listed as -0.5.
As for `COC(=O)[C@H](C(=O)Nc1ccc(Cl)c(Cl)c1)C1CCCCCC1`, the “% Inhibition” value is recorded as -14% and the Z score worked out at 1.82.
As for `Cc1cn[nH]c1[C@H]1CCCN(S(=O)(=O)c2ccc(F)c(Cl)c2)C1`, the “% Inhibition” value is 1% and the Z score is reported as -0.08.
For `CC(=O)NCc1ccc(-c2c[nH]c3ccc(C)cc23)nc1`, the “% Inhibition” value is listed as -2% and the Z score is on record as 0.38.
Turning to `Cc1cc(C2CC(C(=O)NCc3ccc4c(c3)OCO4)CN(C(=O)c3ccccc3)C2)ccc1F` (stereo not drawn), the “% Inhibition” value is -12% and the Z score worked out at 1.35.
With `COc1cccc(-n2nc(C(=O)NCc3cccnc3)c(=O)n(Cc3ccccc3Cl)c2=O)c1`, the “% Inhibition” value was 4% and the Z score is given as -0.84.
For `Cc1cc(C(=O)N[C@H]2CCS(=O)(=O)C(C)(C)C2)c(C)n1C`, the “% Inhibition” value is on record as -12% and the Z score was 1.32.
Take `c1cc(-n2ccnc2)cc(-n2cnnc2)c1`: the “% Inhibition” value is recorded as -8% and the Z score came to 1.06.
Regarding `CCOc1ccc(NC(=O)Cn2[nH]c(-c3ccc(C)cc3)cc2=O)cc1`, the “% Inhibition” value stood at 4% and the Z score is listed as -0.55.
For the compound `O=C(c1csc(-c2cc3ccccc3[nH]2)n1)N1CCN(c2ccccc2)CC1`, the “% Inhibition” value is given as 9% and the Z score is -1.14.
Take `O=C(CC(O)c1ccccc1)NC1CCN(c2ccc(F)cc2F)C1` (stereo not drawn): the “% Inhibition” value is given as -8% and the Z score was determined as 1.35.
In the case of `CC(=Cc1cnn(C(C)C)c1)c1cnccn1`, the “% Inhibition” value was -16% and the Z score is reported as 2.29.
In the same order, the values of `O=C(Nc1cccc(C(F)(F)F)c1)[C@H]1C[C@H]2CCCN2[C@@]12C(=O)Nc1ccccc12` are -18% and 1.73.
On the same counts, the results for `CC1(C)COCCN1CCN[C@H]1CCCc2cc(F)ccc21` are -5% and 0.5.
On to `CCC1=NO[C@@H](CN2CCC(O)(Cc3cc(-c4ccccc4)no3)CC2)C1`, for which the “% Inhibition” value worked out at 6% and the Z score is -0.81.
For the compound `CN(C)c1ccc(C(=O)NC2CCC(F)(F)CC2)cc1`, the “% Inhibition” value is -9% and the Z score is 1.14.
With `Cc1nc(CC(=O)NCc2cccnc2-n2cnc3ccccc32)cs1`, the “% Inhibition” value is given as -18% and the Z score is 2.63.
Take `CC(C)OC1CN(C(=O)CN(C)S(=O)(=O)c2ccccc2)C1`: the “% Inhibition” value is listed as -18% and the Z score is 1.9.
For the compound `CCN(CCC#N)C(=O)c1cccc(N(C)C)c1`, the “% Inhibition” value was -13% and the Z score was determined as 1.7.
For `CC[C@H](NC(=O)CN1CCOc2ccccc2C1)c1ccc(S(C)(=O)=O)cc1`, the “% Inhibition” value is -23% and the Z score was determined as 2.04.
With `Cc1cc(C2(NC(=O)Nc3sc(C)nc3CC(C)C)CCOCC2)on1`, the “% Inhibition” value was found to be 4% and the Z score was -0.5.
Take `COc1cccc(-n2c(=O)[nH]c3cc(-c4nc(-c5ccccc5)no4)ccc3c2=O)c1`: the “% Inhibition” value is recorded as -16% and the Z score stood at 1.84.
In the same order, the values of `O=C(C1CCCN1)N1CCOC(C2CCCO2)C1` (stereo not drawn) are -1% and 0.15.
On to `O=C(CN1CCN(c2ccccc2F)C1=O)NCCc1ccccc1`, for which the “% Inhibition” value is -14% and the Z score is recorded as 1.64.
For `CNC(=NCc1ccc(CN(C)C)c(F)c1)NC`, the “% Inhibition” value was -4% and the Z score was 0.35.
Take `Cc1cccc(C)c1NC(=O)[C@H]1c2cccc[n+]2CC(=O)N1c1ccc2c(c1)OCO2`: the “% Inhibition” value is recorded as -9% and the Z score came out at 1.37.
As for `CC(=O)c1nn(-c2cccc(Cl)c2)cc1C(=O)c1nc2ccccc2s1`, the “% Inhibition” value is listed as -2% and the Z score turned out to be 0.27.
With `Cc1csc(C(NC(=O)NCC2Cc3ccccc3O2)C2CC2)n1` (stereo not drawn), the “% Inhibition” value is on record as -5% and the Z score was 0.93.
For the compound `CCN(Cc1ccccn1)C(=O)c1cc(-c2cnc(N)nc2)nc2c(C)c(C)ccc12`, the “% Inhibition” value is listed as -4% and the Z score amounted to 0.72.
On the same counts, the results for `CC[C@@H](c1cc(C)ccn1)n1cc(-c2ccc(OC)nc2)nn1` are -9% and 1.33.
For `Cc1ccc(C)c(NC(=O)N2C[C@H](c3nc(C)no3)C3(CCOCC3)C2)c1`, the “% Inhibition” value was 2% and the Z score is -0.47.
For the compound `Cc1cc(C)nc(-n2cc(C(=O)OC3(C4CC4)CC3)c(C)n2)n1`, the “% Inhibition” value is on record as -12% and the Z score is on record as 1.09.
`COc1ccccc1N1CCN(C(=O)[C@H](C)n2nc3c(cc2=O)CCC3)CC1`: the “% Inhibition” value came out at 7% and the Z score is -0.89.
For `C=CCn1ncc(Cc2cnn(CC=C)c2C)c1C`, the “% Inhibition” value is listed as -23% and the Z score worked out at 4.39.
In the same order, the values of `O=C(CO)N[C@@H]1CCC[C@H]1OC(F)F` are -7% and 1.14.
With `Cc1cc(C)n(CCN(C)C(=O)CCCn2cnnn2)n1`, the “% Inhibition” value is on record as -6% and the Z score came to 0.94.
`O=C1NCCCCCN(C(=O)c2ccoc2)[C@H]2CCCC[C@@H]12`: the “% Inhibition” value was -6% and the Z score worked out at 0.83.
As for `Cc1nc(N2CCCC2)nc(C)c1NC(=O)CCCc1ccccc1`, the “% Inhibition” value is -9% and the Z score came to 1.59.
Regarding `O=C(NCCC(c1ccccc1)c1ccccc1)c1cccc[n+]1[O-]`, the “% Inhibition” value was 6% and the Z score is reported as -1.
In the same order, the values of `CC(C)c1cc(CN(C)Cc2ccc(Cn3cccn3)cc2)no1` are -10% and 0.99.
`C[C@@H](N)C(=O)N1CCc2[nH]nc(-c3cccc4ccccc34)c2C1`: the “% Inhibition” value is listed as -16% and the Z score came out at 2.1.
`COc1cc(OC)cc(C2(O)CCN(C(=O)CCn3nnc4ccccc4c3=O)CC2)c1`: the “% Inhibition” value is reported as -9% and the Z score is reported as 1.83.
On the same counts, the results for `O=S(=O)(c1cc(F)ccc1NCCO)N1CCOC2(CCC2)C1` are -4% and 0.68.
In the same order, the values of `CCOCCC1CCN(C(=O)c2cccc(-n3cccn3)n2)CC1` are -15% and 1.43.
`Fc1cccc(CN2CCCN(c3nc4cc(Cl)ccc4c4nnc(C5CCCCC5)n34)CC2)c1`: the “% Inhibition” value is -7% and the Z score was 1.37.
With `COc1ccccc1/C=C/c1c(-c2ccccc2)ncn1Cc1ncc[nH]1`, the “% Inhibition” value is 10% and the Z score is given as -1.17.
In the same order, the values of `COc1ccccc1OCc1csc(NC(=O)c2ccco2)n1` are -6% and 0.85.
Consider `Cc1cccnc1CNC(=O)Nc1cnn(CCN(C)C)c1`, for which the “% Inhibition” value is -7% and the Z score stood at 1.14.
With `Cc1cccc2c1CN(C(=O)OC(C)(C)C)CCN2C(=O)Cc1ccon1`, the “% Inhibition” value is given as -10% and the Z score worked out at 1.3.
`O=C(NC1CC1c1ccccc1)c1cc(F)c(O)c(F)c1` (stereo not drawn): the “% Inhibition” value is recorded as 18% and the Z score is -2.14.
Turning to `CCc1ncoc1C(=O)NC1=NN(Cc2ccccc2)[C@@H](C)C1`, the “% Inhibition” value was -3% and the Z score worked out at 0.41.
Regarding `Cc1cc(C)c(-c2nc3c(cnn3Cc3ccco3)[nH]2)cc1Cn1cncn1`, the “% Inhibition” value was -4% and the Z score was determined as 0.79.
With `CC[C@H](C)NC(=O)Cn1nc(C)cc1C`, the “% Inhibition” value was found to be 11% and the Z score is given as -1.7.
Regarding `O=C(NCc1ccccc1)C1CCN(c2ccc(-c3ccccc3)nn2)CC1`, the “% Inhibition” value is reported as -21% and the Z score worked out at 2.03.
Consider `O=C(O)c1cccc(N2CC3(CCC3)C3COCC32)n1` (stereo not drawn), for which the “% Inhibition” value was -4% and the Z score amounted to 0.71.
In the case of `CCc1noc(CN2C(=O)c3cc(Cl)c(Cl)cc3C2=O)n1`, the “% Inhibition” value turned out to be 9% and the Z score is given as -1.18.
